The text below walks through data of a collection of fitness landscapes (doi:10.1126/science.1257360).

The labels stand for the following.
B1: PhoQ; a variant is named by its letters at X, in order, P23837 (parent)
chain: MKKLLRLFFPLSLRVRFLLATAAVVLVLSLAYGMVALIGYSVSFDKTTFRLLRGESNLFYTLAKWENNKLHVELPENIDKQSPTMTLIYDENGQLLWAQRDVPWLMKMIQPDWLKSNGFHEIEADVNDTSLLLSGDHSIQQQLQEVREDDDDAEMTHSVAVNVYPATSRMPKLTIVVVDTIPVELKSSYMVWSWFIYVLSANLLLVIPLLWVAAWWSLRPIEALAKEVRELEEHNRELLNPATTRELTSLVRNLNRLLKSERERYDKYRTTLTDLTHSLKTPLXXLQXXLRSLRSEKMSVSDAEPVMLEQISRISQQIGYYLHRASMRGGTLLSRELHPVAPLLDNLTSALNKVYQRKGVNISLDISPEISFVGEQNDFVEVMGNVLDNACKYCLEFVEISARQTDEHLYIVVEDDGPGIPLSKREVIFDRGQRVDTLRPGQGVGLAVAREITEQYEGKIVAGESMLGGARMEVIFGRQHSAPKDE

The other results are listed elsewhere or left out.

The variants in this test derive from B1. Put plainly: enrichment ratio after two sorts for PhoP signalling (ratio (wild type AVST 3.29)); higher = more functional. Particulars: with PhoP (E. coli).
Take PTAD: the enrichment ratio is not above 0.25.

Turning to FMKS, the enrichment ratio was not above 0.25.

VCLN: the enrichment ratio is 2.29.

Regarding NRTY, the enrichment ratio was not above 0.25.

As to TTVQ, the enrichment ratio was determined as 5.74.

For the variant SPFM, the enrichment ratio is not above 0.25.

For the variant HEET, the enrichment ratio was not above 0.25.

Turning to SVHQ, the enrichment ratio was not above 0.25.

GKFM: the enrichment ratio was not above 0.25.

As to HMVG, the enrichment ratio was not above 0.25.

As to GMRP, the enrichment ratio was not above 0.25.

As to NNAL, the enrichment ratio turned out to be 0.34.

As to PAYA, the enrichment ratio is not above 0.25.

For FIYQ, the enrichment ratio is not above 0.25.

Regarding LRII, the enrichment ratio is not above 0.25.

Regarding DWAA, the enrichment ratio was not above 0.25.

With MFIY, the enrichment ratio was not above 0.25.

Turning to ICAT, the enrichment ratio is not above 0.25.

As to GQRI, the enrichment ratio was not above 0.25.

On to PICA, for which the enrichment ratio was not above 0.25.

For the variant CFND, the enrichment ratio is not above 0.25.

With RAWR, the enrichment ratio was not above 0.25.

Turning to FQFT, the enrichment ratio was not above 0.25.

For RADE, the enrichment ratio was not above 0.25.

As for DHHQ, the enrichment ratio was not above 0.25.

For the variant RIIF, the enrichment ratio was not above 0.25.

In the case of RMCE, the enrichment ratio was not above 0.25.

With SYHK, the enrichment ratio was not above 0.25.

Consider TTDL, for which the enrichment ratio was 6.94.

In the case of MEKV, the enrichment ratio is not above 0.25.

Regarding FATG, the enrichment ratio is not above 0.25.

Take IWLM: the enrichment ratio was not above 0.25.

For LITQ, the enrichment ratio is not above 0.25.

Turning to EGSR, the enrichment ratio was not above 0.25.

Regarding FNPT, the enrichment ratio was not above 0.25.

For HPVY, the enrichment ratio was not above 0.25.

On to VDDK, for which the enrichment ratio is not above 0.25.

With QYLP, the enrichment ratio was not above 0.25.

As for DACL, the enrichment ratio is not above 0.25.

For SAVL, the enrichment ratio was found to be 9.41.

Regarding FCID, the enrichment ratio was not above 0.25.

For the variant ERSY, the enrichment ratio was not above 0.25.

QMYD: the enrichment ratio is not above 0.25.

On to DHTI, for which the enrichment ratio was not above 0.25.

With VVWF, the enrichment ratio was not above 0.25.

In the case of PLLD, the enrichment ratio is not above 0.25.

Regarding SYAM, the enrichment ratio is not above 0.25.

In the case of EDDR, the enrichment ratio is not above 0.25.

As for FYIE, the enrichment ratio is not above 0.25.

For the variant PDAN, the enrichment ratio was not above 0.25.

Take DHLK: the enrichment ratio was not above 0.25.

For FYVI, the enrichment ratio was not above 0.25.

Consider PMEM, for which the enrichment ratio is not above 0.25.

Take VPSI: the enrichment ratio was not above 0.25.

For QVIH, the enrichment ratio is not above 0.25.

On to IGRY, for which the enrichment ratio was not above 0.25.

With TLMN, the enrichment ratio was not above 0.25.

On to ICCQ, for which the enrichment ratio was not above 0.25.

In the case of MECA, the enrichment ratio was 3.

TRGW: the enrichment ratio was not above 0.25.

On to MGLV, for which the enrichment ratio amounted to 15.2.

For GQWY, the enrichment ratio was not above 0.25.

Regarding KYQL, the enrichment ratio was not above 0.25.

As for RYHM, the enrichment ratio was not above 0.25.

In the case of SKWY, the enrichment ratio was not above 0.25.

Consider IGSQ, for which the enrichment ratio was not above 0.25.

Regarding SLDD, the enrichment ratio is not above 0.25.

Consider AKHP, for which the enrichment ratio is not above 0.25.

On to DYDM, for which the enrichment ratio is not above 0.25.

On to GHRC, for which the enrichment ratio was not above 0.25.

For DIVF, the enrichment ratio was not above 0.25.

Consider IMER, for which the enrichment ratio is not above 0.25.

On to WPVD, for which the enrichment ratio was not above 0.25.

For the variant FMNP, the enrichment ratio is not above 0.25.

As to MIEF, the enrichment ratio is not above 0.25.

ESEM: the enrichment ratio was not above 0.25.

As for VNRY, the enrichment ratio is not above 0.25.

Regarding HCYF, the enrichment ratio is not above 0.25.

As to LSYL, the enrichment ratio came to 11.2.

Consider HSYR, for which the enrichment ratio was not above 0.25.

For the variant DKGL, the enrichment ratio is not above 0.25.

As to IYPK, the enrichment ratio was not above 0.25.

In the case of WQLN, the enrichment ratio is not above 0.25.

In the case of YTYL, the enrichment ratio was not above 0.25.

Regarding PKVY, the enrichment ratio was not above 0.25.

As to RGNS, the enrichment ratio is not above 0.25.

For WNES, the enrichment ratio is not above 0.25.

Regarding ACNF, the enrichment ratio was not above 0.25.

Turning to LGFY, the enrichment ratio came to 3.82.

Regarding VDWC, the enrichment ratio was not above 0.25.

RAFV: the enrichment ratio was not above 0.25.

As to RNNY, the enrichment ratio is not above 0.25.

As for NLIS, the enrichment ratio is not above 0.25.

Take GIRG: the enrichment ratio was not above 0.25.

Consider TDPH, for which the enrichment ratio was not above 0.25.

Regarding TALG, the enrichment ratio turned out to be 9.94.

Consider PMLP, for which the enrichment ratio was not above 0.25.

For the variant DLAT, the enrichment ratio is not above 0.25.

On to KYLN, for which the enrichment ratio was not above 0.25.

With FHAK, the enrichment ratio is not above 0.25.

On to YSPC, for which the enrichment ratio is not above 0.25.

As to NNPN, the enrichment ratio was not above 0.25.

On to EHDM, for which the enrichment ratio was not above 0.25.

For the variant AWIK, the enrichment ratio is not above 0.25.

Regarding LSMN, the enrichment ratio was not above 0.25.

Take WVIA: the enrichment ratio is not above 0.25.

Turning to LTGK, the enrichment ratio is not above 0.25.

Turning to KNYY, the enrichment ratio was not above 0.25.

As to LLYT, the enrichment ratio is not above 0.25.

Regarding LPSA, the enrichment ratio is not above 0.25.

For EINM, the enrichment ratio is not above 0.25.

MRIP: the enrichment ratio was not above 0.25.

Consider EDGD, for which the enrichment ratio is not above 0.25.

On to GMTM, for which the enrichment ratio is not above 0.25.

In the case of YYCY, the enrichment ratio was not above 0.25.

In the case of LCIH, the enrichment ratio was not above 0.25.

Take FQEW: the enrichment ratio is not above 0.25.

Consider FALN, for which the enrichment ratio turned out to be 6.83.

VFHK: the enrichment ratio was not above 0.25.

On to YLRV, for which the enrichment ratio was not above 0.25.

Turning to TFHQ, the enrichment ratio was not above 0.25.

Regarding HKCV, the enrichment ratio was not above 0.25.

For SSYQ, the enrichment ratio came out at 0.409.

Regarding NPFP, the enrichment ratio is not above 0.25.

Take TIDP: the enrichment ratio is not above 0.25.

As for QLMP, the enrichment ratio is not above 0.25.

As for WLWK, the enrichment ratio is not above 0.25.

PALM: the enrichment ratio was not above 0.25.

As for YPNH, the enrichment ratio was not above 0.25.

As for YQRR, the enrichment ratio is not above 0.25.

Take FIPL: the enrichment ratio was not above 0.25.

For the variant GVMG, the enrichment ratio was not above 0.25.

Take LSRS: the enrichment ratio was not above 0.25.

For LKFQ, the enrichment ratio is not above 0.25.

In the case of RLNS, the enrichment ratio was not above 0.25.

FHRQ: the enrichment ratio is not above 0.25.

In the case of YCSN, the enrichment ratio was not above 0.25.

On to QGWT, for which the enrichment ratio is 36.

As for NFAK, the enrichment ratio was not above 0.25.

Take FNKT: the enrichment ratio is not above 0.25.

Regarding SVKT, the enrichment ratio was not above 0.25.

Take LNNN: the enrichment ratio is not above 0.25.

Regarding WFVC, the enrichment ratio was not above 0.25.

Consider LAMD, for which the enrichment ratio is not above 0.25.

YEKR: the enrichment ratio was not above 0.25.

With QFHC, the enrichment ratio was not above 0.25.

Consider RHVH, for which the enrichment ratio was not above 0.25.

In the case of TCRD, the enrichment ratio is not above 0.25.

As for HYKN, the enrichment ratio is not above 0.25.

Turning to AHAA, the enrichment ratio is not above 0.25.

For NHQV, the enrichment ratio is not above 0.25.

For the variant DGKG, the enrichment ratio is not above 0.25.

For HTAS, the enrichment ratio is not above 0.25.
